Results from the antibiotic and cytotoxicity screens of Wong et al. (2023).
This is one part of the list.

Tested on: HSkMC (human skeletal muscle cells)
Assay: cytotoxicity call (relative viability < 0.9)
Conditions: 10 µM

| SMILES | cytotoxicity call |
| --- | --- |
| C[C@@H]1CN([C@@H](C)CO)C(=O)c2cc(NC(=O)Nc3ccc4c(c3)OCO4)ccc2O[C@H]1CN(C)S(=O)(=O)c1cn(C)cn1 | inactive |
| C[C@H]1CCCCO[C@@H](CN(C)C(=O)Nc2ccc(C(F)(F)F)cc2)[C@@H](C)CN([C@@H](C)CO)C(=O)c2cc(NC(=O)CCC(F)(F)F)ccc2O1 | inactive |
| CCOC(=O)[C@H]1CNC(=S)N[C@@]1(C)O | inactive |
| COc1ccc(NC(=O)Nc2ccc3c(c2)C(=O)N([C@@H](C)CO)C[C@H](C)[C@H](CN(C)C(=O)Nc2ccc(OC)cc2)OCCCC[C@@H](C)O3)cc1 | inactive |
| COc1ccc(S(=O)(=O)Nc2ccc3c(c2)CC(=O)N([C@H](C)CO)C[C@H](C)[C@H](CN(C)Cc2ccc(Oc4ccccc4)cc2)O3)cc1 | inactive |
| C[C@@H]1CCCCO[C@@H](CN(C)Cc2ccc(C(=O)O)cc2)[C@H](C)CN([C@H](C)CO)C(=O)c2cc(NC(=O)NC3CCCCC3)ccc2O1 | inactive |
| Cc1noc(C)c1NC(=O)Nc1ccc2c(c1)C(=O)N([C@@H](C)CO)C[C@@H](C)[C@@H](CN(C)Cc1ccc(C(F)(F)F)cc1)OCCCC[C@H](C)O2 | inactive |
| COC(=O)[C@@H](Cc1ccc(-n2cc(COc3ccccc3/C=C(C)/C=C/C(=O)NO)nn2)cc1)N1CC2=C[C@H](C3CC3)n3c(=O)n(C)c(=O)n3[C@@H]2[C@H]1[C@H](O)Cc1ccccc1 | inactive |
| N[C@H](C(=O)O)[C@@H]1CC(Cl)=NO1 | inactive |
| C[C@H]1CN([C@@H](C)CO)C(=O)c2cccc(NC(=O)CCCCCC(=O)Nc3ccccc3N)c2O[C@H]1CN(C)C(=O)Nc1ccccc1 | inactive |
| CC1(C)SC2C(NC(=O)C(NC(=O)N3CCNC3=O)c3ccccc3)C(=O)N2C1C(=O)[O-].[Na+] (centres undefined) | inactive |
| CC(C)C[C@](O)(C(=O)OCc1ccc(O[C@@H]2O[C@H](CO)[C@@H](O)[C@H](O)[C@H]2O)cc1)[C@@H](O)C(=O)OCc1ccc(O[C@@H]2O[C@H](CO)[C@@H](O)[C@H](O)[C@H]2O)cc1 | inactive |
| O=C(C[C@H]1CC[C@H]2[C@@H](COC[C@@H](O)CN2C(=O)Nc2ccc3c(c2)OCO3)O1)N1CCN(c2ccccc2)CC1 | inactive |
| C[C@H](CO)N1C[C@H](C)[C@@H](CN(C)Cc2ccc(Cl)c(Cl)c2)Oc2c(NC(=O)Nc3cccc4ccccc34)cccc2C1=O | active |
| COc1ccc(NC(=O)Nc2ccc3c(c2)[C@H]2C[C@@H](CC(=O)NCC(F)(F)F)O[C@@H](CO)[C@H]2O3)cc1 | inactive |
| COc1cc2c3cc1Oc1cc(ccc1O)O[C@H]1c4c(cc(OC)c(O)c4Oc4ccc(cc4)C[C@@H]3N(C)CC2)CCN1C | inactive |
| C=CCn1c(=O)c2c(OC)ccnc2n(C)c1=O | inactive |
| C[C@H](CO)N1C[C@H](C)[C@H](CN(C)Cc2ccc(C(=O)Nc3ccccc3N)cc2)OCc2cn(nn2)CCCC1=O | inactive |
| COCC(=O)N(C)C[C@@H]1Oc2cc(C#CCN(C)C)ccc2S(=O)(=O)N([C@@H](C)CO)C[C@H]1C | inactive |
| C[C@H](CO)N1C[C@H](C)[C@@H](CN(C)Cc2ccc3c(c2)OCCN3C)OCc2ccccc2-c2c(n(C)c3ccccc23)C1=O | inactive |
| COc1ccc(C#Cc2cnc3c(c2)C(=O)N([C@H](C)CO)C[C@H](C)[C@H](CN(C)S(=O)(=O)c2ccc(F)cc2)O3)cc1OC | inactive |
| C[C@H](CO)N1C[C@H](C)[C@@H](CN(C)Cc2ccc(Cl)c(Cl)c2)Oc2ccc(NC(=O)Nc3ccccc3)cc2CC1=O | inactive |
| Cc1noc(C)c1NC(=O)N[C@@H]1C=C[C@H](CC(=O)NCCCN(C)C)O[C@H]1CO | inactive |
| O=C(Nc1cccc2ccccc12)c1ccc(C(F)(F)F)cc1 | inactive |
| C[C@H](CO)N1C[C@H](C)[C@@H](CN(C)C(=O)Nc2cccc(C(F)(F)F)c2)OCc2cnnn2CCCC1=O | inactive |
| COc1cccc(S(=O)(=O)Nc2ccc3c(c2)[C@H]2C[C@H](CC(=O)NCc4cccc(F)c4)O[C@@H](CO)[C@H]2O3)c1 | inactive |
| Cc1cc(C)nc(NS(=O)(=O)c2ccc(N)cc2)n1 | inactive |
| Cc1cc(O)cc(O)c1C(=O)O | inactive |
| C[C@@H]1CCCCO[C@@H](CN(C)C(=O)Nc2cccc3ccccc23)[C@@H](C)CN([C@@H](C)CO)C(=O)c2cc(NC(=O)C3CCCCC3)ccc2O1 | active |
